In the supplement of paper PMC12217912:
This is one part of the list. Sequences were assembled here from the parent chain. Inactive controls read about 0.05.

B1: TEV protease; numbered along this chain (parent)
chain: MGESLFKGPRDYNPISSSICHLTNESDGHTTSLYGIGFGPFIITNKHLFRRNNGTLVVQSLHGVFKVKDTTTLQQHLVDGRDMIIIRMPKDFPPFPQKLKFREPQREERICLVTTNFQTKSMSSMVSDTSCTFPSGDGIFWKHWIQTKDGQCGSPLVSTRDGFIVGIHSASNFTNTNNYFTSVPKNFMELLTNQEAQQWVSGWRLNADSVLWGGHKVFMVKPEEPFQPVKEATQL

Variants of: B1
Assay: raw area under fraction-flipped curve 0-4 h after induction (AUC4h, not background-subtracted), DNA-recorder readout of cleavage of the substrate (dimensionless); higher = more cleavage of the substrate by the protease variant
Conditions: temperature: 34 °C; time window: 0-4 h after rhamnose induction
Description: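 In vivo DNA recorder in E. coli TOP10(DE3) ΔrhaA at 34 °C. Each TEVp single-site mutant (parent TEVp 0) is paired with a single-site variant of the 7-mer TEVs (canonical ENLYFQ|S). The substrate sits between flexible linkers in a Bxb1-sfGFP-TEVs-SsrA fusion, so cleavage stabilises Bxb1 and speeds flipping of a recombination array, read by NGS. The value is the raw area under the fraction-flipped curve over 0-4 h after rhamnose induction (AUC4h), with ≥20 reads per time point. It is not background-subtracted; inactive controls average about 0.047.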
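Also: Bxb1 expression induced with 0.2% (w/v) L-rhamnose at OD600 near 0.5, cultures sampled hourly, flipped fraction per protease–substrate barcode pair counted by paired-end Illumina sequencing.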

Variant	area with substrate ENLYFQA	area with substrate ENLYFQM	area with substrate ENLYFQN	area with substrate ENLYFQR	area with substrate ENLYFQS	area with substrate ENLYFQT	area with substrate ENLYFQC	area with substrate ENLYFQD	area with substrate ENLYFQG	area with substrate ENLYFQH	area with substrate ENLYFQI	area with substrate ENLYFQL	area with substrate ENLYFQP	area with substrate ENLYFQQ	area with substrate ENLYFQV	area with substrate ENLYFQW	area with substrate ENLYFQY	area with substrate ENLYFQK	area with substrate ENLYFQF	area with substrate ENLYFQE
F6Q	0.0933	0.0729	0.0815	0.0436	0.0931	0.0614	–	–	–	–	–	–	–	–	–	–	–	–	–	–
D27L	0.0793	0.0977	0.0866	0.0634	0.0925	0.0632	0.0845	0.0647	0.0878	0.0656	0.0581	0.0592	0.0502	0.0667	0.0571	0.0569	0.0781	–	–	–
G37V	0.0885	0.0702	0.0653	–	0.0798	0.0557	–	–	0.0874	–	0.0563	0.0523	0.0571	0.0672	0.0582	0.0619	0.0944	–	–	–
G37M	0.0758	–	0.074	0.0629	0.0801	0.048	0.0878	–	–	0.0682	0.071	0.0475	0.056	–	–	–	0.0628	0.0584	–	–
F38T	0.0859	0.0729	0.0677	0.0612	0.0871	0.0675	0.103	0.0654	0.0816	0.0707	0.0491	0.0554	0.0546	0.056	–	0.0356	0.063	0.0594	–	–
F38G	0.0491	–	–	0.0414	0.0446	–	–	–	–	–	–	–	–	–	–	–	–	–	0.0417	–
T30N	0.0846	0.0826	0.0759	0.0564	0.0873	0.0498	0.0921	–	0.0943	0.0699	0.078	0.0568	–	–	–	0.0668	0.0617	0.0619	–	–
D11H	0.0822	–	0.0711	0.0704	0.0953	0.004	0.106	0.0381	–	–	–	–	0.0474	–	0.0671	–	0.0492	0.0706	–	0.0563
D11Y	0.0869	0.0777	0.0649	0.0606	0.095	0.0679	0.101	0.0644	0.103	0.108	0.0571	0.0451	–	–	0.0652	0.064	0.0942	0.0683	–	–
I42Q	0.0609	0.0388	–	0.0392	0.043	–	0.0364	–	–	0.0482	0.0309	–	–	–	–	–	–	–	0.0373	0.0455
T44G	0.0671	0.0678	0.0368	0.0543	0.0758	0.0548	0.0812	–	0.0793	0.0653	0.0561	0.0531	0.0282	–	–	0.0651	0.0632	–	–	–
T44E	0.0487	–	0.0484	0.0443	0.0424	0.0382	0.036	–	–	0.0401	–	0.0392	0.0244	–	0.0313	0.0371	–	–	–	–
E25V	0.121	0.0701	0.0747	0.0709	0.0979	–	0.107	–	0.106	0.0705	0.0689	–	0.0595	0.0772	0.0662	0.0661	–	0.067	0.0829	–
E25L	0.0955	0.132	0.08	0.0526	0.103	0.0628	0.109	0.0726	0.0936	0.065	0.0434	–	0.061	–	0.0575	0.0651	–	0.071	–	–
